# In the supplement of paper PMC12645437, “Orthogonal IMiD-Degron Pairs Induce Selective Protein Degradation in Cells” (ACS Chemical Biology, 2025):
# The other results are listed elsewhere or left out.
# Molecular target: no compound (DMSO)
# Assay: log2 fold change of degron read counts, EGFP-low vs EGFP+ sorted cells; higher = lower degron-EGFP level without compound (poor expression or instability)
# Settings: compound: DMSO control; 18 h
# 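Note: jurkat cells carrying a lentiviral library of mutant zinc finger degrons fused to EGFP plus mCherry, mCherry+ cells FACS sorted, degron abundance counted by next-generation sequencing.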
row,Sequence,log2 fold change of degron read counts
1,FMCDQCGAEFTQKGNLLRHIKL,-1.35
2,FMCPVCGANFTQKGNLLRHIKL,-0.202
3,FGCPQCGAPFTQKGNLLRHIKL,-0.94
4,FACEQCGAHFTQKGNLLRHIKL,-2.44
5,FVCEICGHCFTQKGNLLRHIKL,-1.7
6,FLCPQCGACFTQKGNLLRHIKL,-0.498
7,FHCEICGHGFTQKGNLLRHIKL,-1.45
8,FNCPICGHHFTQKGNLLRHIKL,-0.435
9,FDCDQCGANFTQKGNLLRHIKL,-1.29
10,FNCEICGRMFTQKGNLLRHIKL,-0.729
11,FQCDICGAKFTQKGNLLRHIKL,-1.35
12,FYCDQCGANFTQKGNLLRHIKL,-2.04
13,FFCNVCGASFTQKGNLLRHIKL,-0.136
14,FACDICGACFTQKGNLLRHIKL,-1.29
15,FTCEICGRNFTQKGNLLRHIKL,-1.18
16,FNCEQCGARFTQKGNLLRHIKL,-0.975

row,Sequence,log2 fold change of degron read counts
1,FKCPVCGAHFTQKGNLLRHIKL,-0.818
2,FWCPVCGAWFTQKGNLLRHIKL,1.8
3,LCCNQCGFTCTQKGNLLRHIKL,0.318
4,FFCNQCGASFTQKGNLLRHIKL,-1.21
5,FNCDICGAFFTQKGNLLRHIKL,-0.05
6,FCCNQCGHRFTQKGNLLRHIKL,0.407
7,FGCNVCGAYFTQKGNLLRHIKL,0.802
8,FDCNQCGAQFTQKGNLLRHIKL,-1.07
9,LWCEICGFLCTQKGNLLRHIKL,2.34
10,FACPVCGAKFTQKGNLLRHIKL,0.0705
11,LSCNQCGFDCTQKGNLLRHIKL,0.0919
12,FCCEVCGAPFTQKGNLLRHIKL,-0.85
13,LTCEICGFNCTQKGNLLRHIKL,-0.216
14,FICEVCGANFTQKGNLLRHIKL,-1.11
15,FYCEICGRPFTQKGNLLRHIKL,-0.159
16,FDCDICGARFTQKGNLLRHIKL,-2.67
